Hit rate of the full screen: of about 330,000 compounds, about 300 (0.091%) were called active. Inconclusive results, whose numbers are uncertain, are shown with a selection of clear calls. The call rests on the fitted dose curve; in most records, active means well fitted inhibition curve with a large enough effect; inconclusive means small, poorly fitted or top-dose-only effect, or effect the other way, or another doubt; inactive means no such curve, though single readings can be large or run the other way. Potencies of inconclusive entries are left out as doubtful fits.
Molecular target: Lysosomal acid glucosylceramidase (Homo sapiens) (UniProt P04062)
Experiment: qHTS Assay for Inhibitors and Activators of N370S glucocerebrosidase as a Potential Chaperone Treatment of Gaucher Disease;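 on activity change, negative = inhibition: 0% = full enzyme activity and -100% = no enzyme basal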
Details: N370S GC spleen homogenate, 4MU-glucoside fluorescence; activity change, negative = inhibition: at 59.4 µM (top of the series) unless noted
Potency means the concentration at half of the fitted maximal effect.

Structure (SMILES)	Potency	activity change, negative = inhibition
COCCn1c(N)c(C(=O)NCC2CCCO2)c2nc3ccccc3nc21 (stereo not drawn)	inconclusive [activator, partial curve]	–
O=c1c(-c2ccccc2)nc2cnc(Oc3cccc(Cl)c3)nc2n1C[C@H]1CCCO1	–	inactive: 13.5%
Cc1ccccc1SCC(=O)Nc1cc(C(F)(F)F)ccc1N1CCOCC1	inconclusive [activator, partial curve]	–
Cn1nc(C(=O)NCc2ccccc2)c2ccccc2c1=O	–	inactive: -0.108%
CCOC(=O)C1=C(c2ccccc2)NC(=O)NC1c1ccc(OCC#N)c(OC)c1 (stereo not drawn)	inconclusive [activator, partial curve, poor fit]	–
COc1ccc(-c2c(C)oc3c(CN4CCCCC4C)c(O)ccc3c2=O)cc1 (stereo not drawn)	inconclusive [activator, single point]	–
Cc1cc(C)n(-c2nc(SCCN(C)C)c3c4c(sc3n2)COC(C)(C)C4)n1	inconclusive [inhibitor, full curve, poor fit]	–
COc1cc(OC)c(C(=O)OCCCOC(=O)c2cc(OC)c(OC)cc2OC)cc1OC	inconclusive [activator, single point]	–
Cc1cc(C)c2c(n1)nn1c(N3CCN(Cc4ccccc4)CC3)cc(C)nc21	inconclusive [activator, partial curve, poor fit]	–
COc1ccc(N2CCN(C(=O)c3ccc4c(c3)NC(=O)C(CSCc3c(F)cccc3Cl)N4)CC2)cc1 (stereo not drawn)	inconclusive [inhibitor, partial curve, poor fit]	–
Oc1ccc(Nc2nc(Cl)nc(NCc3ccco3)n2)cc1	inconclusive [inhibitor, partial curve]	–
CSCC[C@H](NC(=O)[C@H](Cc1c[nH]c2ccccc12)NC(=O)CCNC(=O)OC(C)(C)C)C(=O)N[C@@H](CC(=O)O)C(=O)N[C@@H](Cc1ccccc1)C(N)=O	–	inactive: -3.97%
S=C(Nc1cccc(Cl)c1)N(CCCN1CCCC1)Cc1cccn1Cc1ccc(Cl)cc1	inconclusive [inhibitor, single point]	–
Cc1c(NC(=O)C(=O)/C=C(\O)c2ccc(Cl)cc2)c(=O)n(-c2ccccc2)n1C	–	inactive: 6.26%
Cc1cc2n(n1)C(c1ccc3c(c1)OCO3)Nc1c(C)cccc1-2 (stereo not drawn)	inconclusive [activator, partial curve]	–
O=C(Nc1cccs1)Nc1cccnc1Cl	–	inactive: -1.69%
COC(=O)c1ccc(NC(=O)C(=O)N2CCCC2)cc1	inconclusive [inhibitor, single point]	–
O=S(=O)(c1ccccc1)c1cnc(-c2cccnc2)nc1-c1ccc(Cl)cc1Cl	inconclusive [activator, partial curve, poor fit]	–
CCc1ccc(NS(=O)(=O)c2cc3[nH]c(=O)c(=O)[nH]c3cc2C)cc1	inconclusive [inhibitor, single point]	–
Cc1cc(C)nc(Sc2ccc(/C=C(\C#N)C(N)=O)o2)n1	inconclusive [inhibitor, single point]	–
O=C(CSc1nnc(-c2ccccc2O)n1-c1ccccc1)Nc1cccc(C(=O)O)c1	inconclusive [inhibitor, single point]	–
CCCN(CC1CC1)c1nc(N)c(C#N)c(CC#N)c1C#N	inconclusive [activator, single point]	–

Structure (SMILES)	Potency	activity change, negative = inhibition
COc1ccc(Nc2nc(-c3ccccc3F)nc3ccccc23)cc1OC	active: 2.51 µM	–
O=C(COc1cc(F)ccc1[N+](=O)[O-])NCCCc1ccccc1	inconclusive [activator, partial curve]	–
CCN(CC)c1ccc(/C=N/NC(=O)CNC(=O)c2cccnc2)cc1	inconclusive [activator, single point]	–
Cc1[nH]c2ccccc2c1C(=O)C(=O)NCCCn1ccnc1	–	inconclusive: 27.5% [activator]
CCN(CC)CCN(C(=O)CCS(=O)(=O)c1ccccc1)c1nc2cc(C)cc(C)c2s1	–	inactive: -16.8%
NS(=O)(=O)c1ccc(Nc2nc(-c3ccc(O)cc3)cs2)cc1	–	inactive: -20.7%
OC1CCN(c2c3c(nc4cc(-c5ccc(Cl)cc5)nn24)CCC3)CC1	–	inactive: -25.6%
O=Nc1ccc(Nc2ccccc2)cc1	–	inactive: -22.8%
O=C(CSc1nc2c(c(=O)n1-c1ccccc1)SCC2)N1CCN(c2ccccc2)CC1	inconclusive [activator, single point]	–
O=S(=O)(Nc1nc2ccccc2nc1-[n+]1cccc(N=C([O-])c2ccccc2Cl)c1)c1ccccc1	inconclusive [activator, single point]	–
O=C(Nc1nc2ccc(Br)cc2s1)c1ccco1	–	inactive: 0.468%
COc1cccc(N=c2oc3cc(O)ccc3cc2C(=O)NCC2CCCO2)c1 (stereo not drawn)	inconclusive [activator, single point]	–
CN(C)/C=C/c1onc(-c2c(Cl)cccc2Cl)c1C#N	inconclusive [activator, single point]	–
O=C(CCCO)CCCCCCCCC[C@H]1N[C@H](CO)[C@@H](O)[C@@H]1O	inconclusive [inhibitor, partial curve]	–
CCCOC(=O)C1C2C=CC3(CN(c4cccc(Cl)c4)C(=O)C13)O2 (stereo not drawn)	–	inactive: 0.629%
Cc1cc(-n2c(=O)c(C#N)cc3c(=O)n4cccc(C)c4nc32)no1	inconclusive [activator, partial curve]	–
N=c1ccn(CC(=O)NC(N)=O)c2ccccc12	inconclusive [inhibitor, single point]	–
COc1cccc(CNC(=O)C(=O)NCC(c2ccco2)N2CCOCC2)c1 (stereo not drawn)	inconclusive [inhibitor, single point]	–
Cc1cc(OCC(=O)Nc2cccc(S(=O)(=O)NC3=NCCCCC3)c2)ccc1Cl	–	inactive: -6.93%
O=C(CSc1nc2ccccc2o1)N1c2ccccc2Sc2ccccc21	inconclusive [activator, partial curve]	–
COCCCN(Cc1ccco1)C(=O)CSc1nc2ncccc2[nH]1	inconclusive [inhibitor, single point]	–

— PubChem BioAssay AID2101 (National Center for Advancing Translational Sciences (NCATS), 2009)
